# Test results: PubChem BioAssay AID1030 (National Center for Advancing Translational Sciences (NCATS), 2008)
# The whole screen tested about 220,000 compounds, of which about 16,000 (7.3%) were called active. The inconclusive results got no clear call from the source; some entries with a clear call stand among them for comparison. Calls come from the whole dose curve; as a rule, active = well fitted inhibition curve with a large enough effect (not every such curve was filed as active); inconclusive = small, poorly fitted or top-dose-only effect, or another doubt; inactive = no such curve, though single readings can be large or run the other way. Potencies of inconclusive entries are left out as doubtful fits.
# Target: Aldehyde dehydrogenase 1A1 (Homo sapiens) (UniProt P00352)
# Experiment: qHTS Assay for Inhibitors of Aldehyde Dehydrogenase 1 (ALDH1A1);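 for activity, negative = inhibition: plate controls were no enzyme wells and a reference inhibitor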
# Settings: Purified ALDH1A1, NADH fluorescence, propionaldehyde substrate; series mostly up to 75.3 µM; activity, negative = inhibition: at the top concentration
# Potency is the fitted concentration of half-maximal effect; tags give direction and shape of the fitted curve.
# Chain of UniProt P00352 (P00352 whole entry, looked up): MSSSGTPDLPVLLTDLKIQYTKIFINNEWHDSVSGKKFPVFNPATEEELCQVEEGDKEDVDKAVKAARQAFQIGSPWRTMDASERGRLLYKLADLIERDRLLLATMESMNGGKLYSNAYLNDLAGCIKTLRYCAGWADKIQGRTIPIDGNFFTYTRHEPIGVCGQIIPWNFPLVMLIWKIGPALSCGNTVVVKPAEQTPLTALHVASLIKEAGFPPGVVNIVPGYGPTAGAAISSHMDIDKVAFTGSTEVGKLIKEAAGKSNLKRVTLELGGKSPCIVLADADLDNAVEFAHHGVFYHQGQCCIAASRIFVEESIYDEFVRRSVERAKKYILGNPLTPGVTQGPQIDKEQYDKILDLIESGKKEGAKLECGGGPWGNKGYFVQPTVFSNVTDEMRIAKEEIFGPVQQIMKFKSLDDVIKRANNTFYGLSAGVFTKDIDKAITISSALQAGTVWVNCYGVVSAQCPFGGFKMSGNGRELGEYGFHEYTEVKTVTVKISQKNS
SMILES,Potency,"activity, negative = inhibition"
COc1ccc(C(C(=O)Nc2ccc3c(c2)OCO3)N(C)C(=O)Cc2c[nH]c3ccccc23)cc1 (centres undefined),"inconclusive [inhibitor, single point]",
N#CC1=C(N)n2c(s/c(=C\c3ccco3)c2=O)=C(C#N)C1c1ccco1 (centres undefined),active: 22.4 µM,
CCCCn1nc2cc(C(=O)NCc3ccccc3OC)ccc2c1OCC,"inconclusive [inhibitor, partial curve]",
Cc1cc(=O)[nH]c(N/N=C/CCc2ccccc2)n1,"inconclusive [inhibitor, partial curve]",
CCCN=Cc1sc2ccc(OCC)cc2c1O,"inconclusive [inhibitor, single point]",
COc1cccc(C2/C(=C(\O)c3ccc4c(c3)OCO4)C(=O)C(=O)N2CCN(C)C)c1OC (centres undefined),active: 22.4 µM,
Cc1cc(C)n2c(SCC(=O)N(CC(C)C)c3c(N)n(CC(C)C)c(=O)[nH]c3=O)nnc2n1,"inconclusive [inhibitor, single point]",
CCOc1nc(N=C(N)N)nc2c(C)cccc12,"inconclusive [inhibitor, single point]",
CCC(Oc1ccccc1)C(=O)NCc1ccc(S(N)(=O)=O)cc1 (centres undefined),,inactive: 12.9%
CCOC(=O)CC1(CC(=O)OCC)NC(=O)c2c(C)sc(C(=O)OCC)c2N1,"inconclusive [inhibitor, single point]",
Nc1[nH][nH]c(=O)c1N=Nc1ccc2c(c1)OCO2,,inactive: 1.87%
CCOc1ccc(N(CC(=O)NC(C)(C)C)S(=O)(=O)c2c(C)noc2C)cc1,"inconclusive [inhibitor, single point]",
COc1cccc2c3c(c(C)nc12)CC(CO)O3 (centres undefined),"inconclusive [inhibitor, partial curve]",
COc1ccc(OC)c(C=Nc2ccccc2-c2nc3ccccc3[nH]2)c1,"inconclusive [inhibitor, partial curve]",
Cc1cc(NC(=O)CSc2nnc(C(C)N(C)C)n2Cc2ccccc2)no1 (centres undefined),"inconclusive [inhibitor, single point]",
Cc1nnc(-c2ccc(Oc3ccc(C)c(C)c3)c([N+](=O)[O-])c2)o1,"inconclusive [inhibitor, single point]",
CCC1CCc2[nH]nc(C(=O)O)c2C1 (centres undefined),,inactive: 4.83%
Cc1ccc(NC(=O)c2cc(S(=O)(=O)c3ccccc3)ccc2Cl)cc1,active: 10 µM,
OCC(O)CN1CCN(c2ccccc2)CC1 (centres undefined),inactive,
CCOc1cc(C2NC(=S)NC(C)=C2C(=O)Nc2ccc(OC)cc2)ccc1O (centres undefined),"inconclusive [inhibitor, partial curve]",
Cc1ccccc1C(=O)Nc1ccc(N2CCCCCC2)cc1,"inconclusive [inhibitor, single point]",
COc1ccc(-c2csc(NC(=O)C3CC(=O)N(c4ccc5c(c4)OCCO5)C3)n2)cc1 (centres undefined),"inconclusive [inhibitor, single point]",
C/C(CC(=O)Nc1cccc(Cl)c1C)=N\NC(=O)Cc1csc(N)n1,,inactive: -9.01%
C=CCn1c(-c2ccccc2)nc2nc3ccccc3nc21,"inconclusive [inhibitor, partial curve]",
CCC(C(=O)NNC(=O)c1cnccn1)c1ccccc1 (centres undefined),,inactive: -0.787%

SMILES,Potency,"activity, negative = inhibition"
CC(=O)N1CCN(c2ccc(Nc3nc(C)nc4c3oc3ccccc34)cc2)CC1,"inconclusive [inhibitor, single point]",
COc1cccc(C(=O)Nc2nnc(C3CCCO3)s2)c1 (centres undefined),"inconclusive [inhibitor, single point]",
COc1ccc(S(=O)(=O)NCCSC(C)(C)C)c(Cl)c1Cl,active: 2.38 µM,
CSc1ccccc1NC(=S)Nc1cccc(C(F)(F)F)c1,"inconclusive [inhibitor, partial curve]",
COc1ccc(Nc2ncccc2C(=O)NCc2ccccc2)cc1,,inactive: -5.64%
O=C1C2CC(O)CN2C(=O)N1c1ccccc1 (centres undefined),,inactive: -0.846%
CCCCN(CC)c1nc(N)c2c(N)nc(OCC)cc2c1C#N,"inconclusive [inhibitor, partial curve]",
CCOC(=O)c1cnc(SCCc2ccccc2)nc1N,,inactive: -6.13%
CCCOC(=O)CCCCCCCCC(O)CN1CCCCC1 (centres undefined),active: 17.8 µM,
O=c1nc2ccccc2c2n1CC(CN1CCN(Cc3ccccc3)CC1)N2 (centres undefined),"inconclusive [inhibitor, single point]",
C/C(=N\NC(=O)CN(c1ccccc1Br)S(C)(=O)=O)c1cccs1,,inactive: 9.75%
COc1ccccc1-n1cnnc1SCC(=O)N1CCN(S(=O)(=O)c2ccccc2)CC1,"inconclusive [inhibitor, partial curve, poor fit]",
O=c1c(-c2cccs2)nc2cnc(N3CCOCC3)nc2n1Cc1cccs1,,inactive: -0.359%
NC1=NN=C(N2N=C(c3ccco3)CC2(O)C(F)(F)F)n2ncnc2C1 (centres undefined),,inactive: 0.986%
NS(=O)(=O)c1cccc(NC(=O)Cc2ccc(Cl)c(Cl)c2)c1,,inactive: 7.24%
Cn1cccc1C1NC(=O)c2c(sc3c2CCC(C(C)(C)C)C3)N1 (centres undefined),"inconclusive [inhibitor, single point]",
COC(=O)C1=C(C(=O)OC)C(c2cc(Cl)ccc2O)c2sc(=O)[nH]c2S1 (centres undefined),active: 31.6 µM,
CC(C)[C@H](NC(=O)c1ccc(C(C)(C)C)cc1)C(=O)Nc1nnc(C2CC2)s1,,inactive: 4.86%
O=C(CSc1nc2ccsc2c(=O)n1Cc1ccc(C(=O)O)cc1)NCc1ccco1,,inactive: 5.75%
O=C(Nc1nnc(-c2cccs2)s1)c1cccc(F)c1,"inconclusive [inhibitor, partial curve]",
Clc1ccc(CSc2nnc(CNc3cccc(Cl)c3)o2)cc1,"inconclusive [inhibitor, partial curve]",
O=C(Cn1c(=O)[nH]n(-c2ccccc2)c1=O)N1CCCc2ccccc21,,inactive: -7.98%
COCCn1c(=O)c(CCc2ccccc2)nc2cnc(OC)nc21,"inconclusive [inhibitor, partial curve]",
Cc1cc(C(C)(C)C)cc(S(=O)(=O)Nc2ccc(O)c(C(=O)O)c2)c1C,active: 3.98 µM,
